According to PubChem BioAssay (NCATS):
The list shows a part of the results. The main result of the screen is listed elsewhere. These columns were measured beside it and carry no call. Most of these compounds were active or inconclusive in the main read-out, so they are no random draw. The note in brackets gives the kind of curve behind each potency; many fits are weak.

Experiment: qHTS Assay for Lipid Storage Modulators (AID 1519)
Details: Drosophila S3 cells, BODIPY lipid droplet/cell ratio, laser cytometry, cells loaded with oleic acid
Procedure, shortened: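 Cells seeded at 5,000 per well were treated with compounds over a concentration series and loaded with oleic acid (400 uM, as added). Lipid droplet fluorescence (488 nm excitation, 500-530 nm channel) was read by laser-scanning cytometry and normalized to 20 uM Triacsin C.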

[1] = measured here: cell count channel max response
[2] = measured here: lipid (BODIPY) channel AC50
[3] = measured here: lipid channel max response
[4] = measured here: cell number channel AC50
Tags describe the fitted curve by direction and shape.

Compound | max response [1] [%] | AC50 [2] | max response [3] [%] | AC50 [4]
c1ccc(CNc2ncncc2-c2ccoc2)cc1 | 31.4 | 1580 nM [rising, full curve, poor fit] | 35 | –
CN(C)C(=O)c1ccc(-c2nccc(Nc3ccc(F)cc3)n2)cc1 | 19.9 | 891 nM [rising, full curve, poor fit] | 29.6 | –
O=c1c(-c2ccc(F)cc2)nc2cncnc2n1C1CC1 | 25.5 | 5.01 nM [rising, full curve, poor fit] | 30.2 | –
COC(=O)N1CCC2(CC1)CCN(c1ccccn1)CC2 | 24.5 | 5010 nM [rising, partial curve] | 37.9 | –
COc1cccc(Nc2ncc3nc(-c4cn(C)c5ccccc45)c(=O)n(C[C@H]4CCCO4)c3n2)c1 | 33.5 | – | 8.09 | 447 nM [rising, full curve, poor fit]
O=c1c(-c2ccc(Cl)cc2)nc2cnc(Nc3ccccc3)nc2n1C1CC1 | 54.2 | – | -51.9 | 10000 nM [rising, partial curve]
CC1(C)S[C@H]2[C@@H](NC(=O)C(N)c3ccccc3)C(=O)N2[C@H]1C(=O)O (stereo not given in full) | -9.63 | 63100 nM [falling, single point] | -8.79 | –
c1cncc(CNc2ncncc2-c2ccoc2)c1 | 25.4 | 8910 nM [rising, full curve, poor fit] | 30.7 | –
c1ccc2c(c1)CN1CCCC1=N2 | 22.4 | 12600 nM [rising, partial curve, poor fit] | 31.9 | –
O=C(Nc1ccccc1)N1CCCC2(CCN(C(=O)c3cnccn3)CC2)C1 | 23.3 | 17800 nM [rising, partial curve, poor fit] | 31.6 | –
CS(=O)(=O)Nc1cccc(-c2ccc3ncnc(N4CCOCC4)c3c2)c1 | -22.5 | 39800 nM [falling, single point] | -36 | –
COCCn1c(=O)cnc2cnc(Oc3cccc(Cl)c3)nc21 | 27.8 | 11200 nM [rising, partial curve, poor fit] | 30 | –
O=C(c1cccc(F)c1)N1CCC2(CC1)CN(c1ccccc1)C2 | 9.49 | 1000 nM [rising, full curve, poor fit] | 15.4 | –
CN(C)Cc1ccccc1-c1cncnc1Nc1ccc(F)cc1 | 19.9 | 15800 nM [rising, partial curve] | 32.9 | –
O=c1c(-c2cccc(F)c2)nc2cncnc2n1Cc1ccc(F)cc1 | 2.98 | 200 nM [rising, full curve, poor fit] | -0.937 | –
CN(C)c1ncc2ncc(=O)n(Cc3cccs3)c2n1 | 21.9 | 11.2 nM [rising, full curve, poor fit] | 28.1 | –
CN1CCN(c2ncc3nc(-c4cn(C)c5ccccc45)c(=O)n(Cc4cccs4)c3n2)CC1 | -49.2 | – | -97.7 | 12600 nM [falling, partial curve]
CN1CCC(OC(c2ccccc2)c2ccccc2)CC1 | 27.7 | 39800 nM [rising, single point] | 41.4 | –
COc1ccc(-n2c(=O)c(-c3cccs3)nc3cnc(Nc4cccc(OC)c4)nc32)cc1 | 80.5 | – | -40.7 | 3160 nM [rising, partial curve]
COc1cccc(Cn2c(=O)c(-c3ccc(F)cc3)nc3cncnc32)c1 | 23.2 | 20 nM [rising, full curve, poor fit] | 27.4 | –
O=C(NC(CO)C(O)c1ccc([N+](=O)[O-])cc1)C(Cl)Cl (stereo not given) | 28.2 | 126 nM [rising, full curve, poor fit] | 53.8 | –
O=C(c1cnccn1)N1CCC2(CCCN(Cc3nccs3)C2)CC1 | 26.3 | 10 nM [rising, full curve] | 33.9 | –
N#Cc1cccc(NC(=O)N2CCCC3(CCN(C(=O)c4cc(C(F)(F)F)cc(C(F)(F)F)c4)CC3)C2)c1 | 11.1 | 282 nM [rising, full curve, poor fit] | 15.7 | –
Cn1c(=O)cnc2cnc(Nc3ccccc3)nc21 | 3.51 | 63.1 nM [rising, full curve, poor fit] | -18.9 | –
c1ccc2c(N3CCNCC3)nc(-c3ccc4c(c3)OCO4)nc2c1 | 18.2 | 89.1 nM [rising, full curve, poor fit] | 32.5 | –
